According to the supplement of paper PMC8728848:
This is one part of the list.

Legend:
Assay in all cases: glycan array binding signal (z-score within array); higher = stronger binding
Details in all cases: glycan notation: IUPAC condensed, linker removed
[1] = biological target: GlcNAc(b1-3)Gal(b1-4)GlcNAc(b1-3)Gal(b1-4)GlcNAc(b1-3)Gal(b1-4)GlcNAc(b1-3)Gal(b1-4)GlcNAc(b1-2)[GlcNAc(b1-3)Gal(b1-4)GlcNAc(b1-3)Gal(b1-4)GlcNAc(b1-3)Gal(b1-4)GlcNAc(b1-3)Gal(b1-4)GlcNAc(b1-6)]Man(a1-6)[GlcNAc(b1-3)Gal(b1-4)GlcNAc(b1-3)Gal(b1-4)GlcNAc(b1-3)Gal(b1-4)GlcNAc(b1-3)Gal(b1-4)GlcNAc(b1-2)Man(a1-3)]Man(b1-4)GlcNAc(b1-4)[Fuc(a1-6)]GlcNAc
How it was run: (§1)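 Arrays were curated from the Consortium for Functional Glycomics database, 3228 in total, and kept only where the protein sequence was available. Binding is expressed as a within-array Z-score. This score was averaged across arrays of the same protein sequence at different concentrations or buffers and across linkers, and negative values can be read as non-binding.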

[2] = biological target: GlcNAc(b1-3)Gal(b1-4)GlcNAc(b1-3)Gal(b1-4)GlcNAc(b1-3)GalNAc
How it was run: as §1

[3] = biological target: GlcNAc(b1-3)Gal(b1-4)GlcNAc(b1-3)GalNAc
How it was run: as §1

[4] = biological target: GlcNAc(b1-3)Gal(b1-4)GlcNAc(b1-3)[GlcNAc(b1-3)Gal(b1-4)GlcNAc(b1-3)]GalNAc
How it was run: as §1

[5] = biological target: GlcNAc(b1-3)Gal(b1-4)GlcNAc(b1-6)[Gal(b1-3)]GalNAc
How it was run: as §1

[6] = biological target: GlcNAc(b1-3)Gal(b1-4)GlcNAc(b1-6)[GlcNAc(b1-3)Gal(b1-3)]GalNAc
How it was run: as §1

[7] = biological target: GlcNAc(b1-3)Gal(b1-4)GlcNAc(b1-6)[GlcNAc(b1-3)]Gal(b1-4)GlcNAc
How it was run: as §1

GlcNAc(b1-3)GalNAc = biological target: GlcNAc(b1-3)GalNAc
How it was run: as §1

GlcNAc(b1-3)Man = biological target: GlcNAc(b1-3)Man
How it was run: as §1

[8] = biological target: GlcNAc(b1-3)[GlcNAc(b1-4)][GlcNAc(b1-6)]GlcNAc
How it was run: as §1

[9] = biological target: GlcNAc(b1-3)[GlcNAc(b1-6)]Gal(b1-4)GlcNAc
How it was run: as §1

[10] = biological target: GlcNAc(b1-3)[GlcNAc(b1-6)]GalNAc
How it was run: as §1

[11] = biological target: GlcNAc(b1-4)Gal(b1-4)GlcNAc
How it was run: as §1

GlcNAc(b1-4)GlcNAc = biological target: GlcNAc(b1-4)GlcNAc
How it was run: as §1

[12] = biological target: GlcNAc(b1-4)GlcNAc(b1-4)GlcNAc
How it was run: as §1

[13] = biological target: GlcNAc(b1-4)GlcNAc(b1-4)GlcNAc(b1-4)GlcNAc(b1-4)GlcNAc
How it was run: as §1

[14] = biological target: GlcNAc(b1-4)GlcNAc(b1-4)GlcNAc(b1-4)GlcNAc(b1-4)GlcNAc(b1-4)GlcNAc
How it was run: as §1

[15] = biological target: GlcNAc(b1-4)[GlcNAc(b1-6)]GalNAc
How it was run: as §1

[16] = biological target: GlcNAc(b1-6)Gal(b1-4)GlcNAc
How it was run: as §1

GlcNAc(b1-6)GalNAc = biological target: GlcNAc(b1-6)GalNAc
How it was run: as §1

[17] = biological target: GlcNAc6S(b1-3)Gal(b1-4)GlcNAc
How it was run: as §1

Kdn(a2-3)Gal(b1-3)GalNAc = biological target: Kdn(a2-3)Gal(b1-3)GalNAc
How it was run: as §1

Kdn(a2-3)Gal(b1-3)GlcNAc = biological target: Kdn(a2-3)Gal(b1-3)GlcNAc
How it was run: as §1

Kdn(a2-3)Gal(b1-4)Glc = biological target: Kdn(a2-3)Gal(b1-4)Glc
How it was run: as §1

Kdn(a2-3)Gal(b1-4)GlcNAc = biological target: Kdn(a2-3)Gal(b1-4)GlcNAc
How it was run: as §1

[18] = biological target: Kdn(a2-3)Gal(b1-4)[Fuc(a1-3)]GlcNAc
How it was run: as §1

Kdn(a2-6)Gal(b1-4)GlcNAc = biological target: Kdn(a2-6)Gal(b1-4)GlcNAc
How it was run: as §1

[19] = biological target: Man(a1-2)Man(a1-2)Man(a1-3)Man
How it was run: as §1

[20] = biological target: Man(a1-2)Man(a1-2)Man(a1-6)[Man(a1-3)]Man
How it was run: as §1

Man(a1-2)Man(a1-3)Man = biological target: Man(a1-2)Man(a1-3)Man
How it was run: as §1

[21] = biological target: Man(a1-2)Man(a1-3)[Man(a1-2)Man(a1-6)]Man
How it was run: as §1

[22] = biological target: Man(a1-2)Man(a1-3)[Man(a1-2)Man(a1-6)]Man(a1-6)[Man(a1-2)Man(a1-2)Man(a1-3)]Man
How it was run: as §1

[23] = biological target: Man(a1-2)Man(a1-3)[Man(a1-2)Man(a1-6)]Man(a1-6)[Man(a1-2)Man(a1-2)Man(a1-3)]Man(b1-4)GlcNAc(b1-4)GlcNAc
How it was run: as §1

[24] = biological target: Man(a1-2)Man(a1-3)[Man(a1-6)]Man(a1-6)[Man(a1-2)Man(a1-3)]Man(b1-4)GlcNAc(b1-4)GlcNAc
How it was run: as §1

[25] = biological target: Man(a1-2)Man(a1-6)[Man(a1-3)]Man(a1-6)[Man(a1-2)Man(a1-2)Man(a1-3)]Man
How it was run: as §1

[26] = biological target: Man(a1-2)Man(a1-6)[Man(a1-3)]Man(a1-6)[Man(a1-2)Man(a1-2)Man(a1-3)]Man(b1-4)GlcNAc(b1-4)GlcNAc
How it was run: as §1

Man(a1-3)[Man(a1-6)]Man = biological target: Man(a1-3)[Man(a1-6)]Man
How it was run: as §1

[27] = biological target: Man(a1-3)[Man(a1-6)]Man(a1-6)[Man(a1-2)Man(a1-3)]Man(b1-4)GlcNAc(b1-4)GlcNAc
How it was run: as §1

[28] = biological target: Man(a1-3)[Man(a1-6)]Man(a1-6)[Man(a1-3)]Man
How it was run: as §1

[29] = biological target: Man(a1-3)[Man(a1-6)]Man(a1-6)[Man(a1-3)]Man(b1-4)GlcNAc(b1-4)GlcNAc
How it was run: as §1

[30] = biological target: Man(a1-3)[Man(a1-6)]Man(b1-4)GlcNAc(b1-4)GlcNAc
How it was run: as §1

[31] = biological target: Man(a1-3)[Man(a1-6)]Man(b1-4)GlcNAc(b1-4)[Fuc(a1-6)]GlcNAc
How it was run: as §1

Man(a1-6)Man = biological target: Man(a1-6)Man
How it was run: as §1

Man(b1-4)GlcNAc = biological target: Man(b1-4)GlcNAc
How it was run: as §1

MurNAc(b1-4)GlcNAc = biological target: MurNAc(b1-4)GlcNAc
How it was run: as §1

B1: Threefoil (Haloarcula marismortui) (protein)
chain: GSSHHHHHHHHHHSSGLVPRGSHMGDGYYKLVARHSGKALDVENASTSDGANVIQYSYSGGDNQQWRLVDLGDGYYKLVARHSGKALDVENASTSDGANVIQYSYSGGDNQQWRLVDLGDGYYKLVARHSGKALDVENASTSDGANVIQYSYSGGDNQQWRLVDL
[1]
  glycan array binding signal (z-score): -0.088
[2]
  glycan array binding signal (z-score): -0.318
[3]
  glycan array binding signal (z-score): -0.264
[4]
  glycan array binding signal (z-score): -0.212
[5]
  glycan array binding signal (z-score): -0.241
[6]
  glycan array binding signal (z-score): -0.117
[7]
  glycan array binding signal (z-score): -0.237
GlcNAc(b1-3)GalNAc
  glycan array binding signal (z-score): -0.111
GlcNAc(b1-3)Man
  glycan array binding signal (z-score): -0.087
[8]
  glycan array binding signal (z-score): -0.145
[9]
  glycan array binding signal (z-score): -0.224
[10]
  glycan array binding signal (z-score): -0.164
[11]
  glycan array binding signal (z-score): -0.301
GlcNAc(b1-4)GlcNAc
  glycan array binding signal (z-score): -0.198
[12]
  glycan array binding signal (z-score): -0.199
[13]
  glycan array binding signal (z-score): -0.318
[14]
  glycan array binding signal (z-score): -0.198
[15]
  glycan array binding signal (z-score): -0.301
[16]
  glycan array binding signal (z-score): 0.035
GlcNAc(b1-6)GalNAc
  glycan array binding signal (z-score): -0.181
[17]
  glycan array binding signal (z-score): 0.091
Kdn(a2-3)Gal(b1-3)GalNAc
  glycan array binding signal (z-score): -0.172
Kdn(a2-3)Gal(b1-3)GlcNAc
  glycan array binding signal (z-score): -0.168
Kdn(a2-3)Gal(b1-4)Glc
  glycan array binding signal (z-score): 0.03
Kdn(a2-3)Gal(b1-4)GlcNAc
  glycan array binding signal (z-score): -0.158
[18]
  glycan array binding signal (z-score): -0.156
Kdn(a2-6)Gal(b1-4)GlcNAc
  glycan array binding signal (z-score): -0.172
[19]
  glycan array binding signal (z-score): -0.259
[20]
  glycan array binding signal (z-score): -0.271
Man(a1-2)Man(a1-3)Man
  glycan array binding signal (z-score): -0.174
[21]
  glycan array binding signal (z-score): -0.247
[22]
  glycan array binding signal (z-score): -0.023
[23]
  glycan array binding signal (z-score): -0.334
[24]
  glycan array binding signal (z-score): -0.319
[25]
  glycan array binding signal (z-score): -0.187
[26]
  glycan array binding signal (z-score): -0.207
Man(a1-3)[Man(a1-6)]Man
  glycan array binding signal (z-score): -0.329
[27]
  glycan array binding signal (z-score): -0.166
[28]
  glycan array binding signal (z-score): -0.234
[29]
  glycan array binding signal (z-score): -0.144
[30]
  glycan array binding signal (z-score): -0.238
[31]
  glycan array binding signal (z-score): -0.198
Man(a1-6)Man
  glycan array binding signal (z-score): -0.242
Man(b1-4)GlcNAc
  glycan array binding signal (z-score): 0.763
MurNAc(b1-4)GlcNAc
  glycan array binding signal (z-score): -0.047
